# Test results taken from PubChem BioAssay AID504832 (National Center for Advancing Translational Sciences (NCATS), 2011).
# In all, about 310,000 compounds went through this assay and about 18,000 (5.8%) were called active. This list was built around the results that the source calls inconclusive (neither active nor inactive); the mix of calls is not that of the screen. The call rests on the fitted dose curve; in most records, active means well fitted inhibition curve with a large enough effect; inconclusive means small, poorly fitted or top-dose-only effect, or another doubt; inactive means no such curve, though single readings can be large or run the other way. Potencies of inconclusive entries are left out as doubtful fits. A structure can be active in one record and inactive in another.
# Test: Primary qHTS for delayed death inhibitors of the malarial parasite plastid, 48 hour incubation
# Conditions: P. falciparum luciferase growth in erythrocytes; series mostly up to 28.7 µM; activity change, negative = inhibition: at the top concentration
# Procedure, shortened: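 Compounds are pin-transferred into medium, infected erythrocytes (2% hematocrit, 0.1% parasitemia final) are added, and plates sit one parasite generation at 37 C in 5% CO2. Detection reagent is then added and luminescence measured.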
# On the % scale 0 is the no-effect control and ±100 the full control effect; potency means the concentration at half of the fitted maximal effect; tags describe the fitted curve by direction and shape.
Structure (SMILES),Potency,"activity change, negative = inhibition"
O=C1[C@H]2[C@@H](c3ccc(F)cc3)N3C(=O)N(c4ccccc4)C(=O)[C@@]3(Cc3ccc(Cl)cc3)[C@H]2C(=O)N1C1CCCCC1,"inconclusive [inhibitor, partial curve, poor fit]",
O=C1CCCC1C(=O)Nc1ccc2ccccc2c1 (stereo not given),,inactive: 24.1%
CC(C)Nc1nc(NC(N)=S)nc(NC(C)(C)C)n1,,inactive: -9.03%
CCCc1cc(C(=O)OCC(=O)N(CCC)c2c(N)n(Cc3ccccc3)c(=O)[nH]c2=O)sc1C,"inconclusive [inhibitor, single point]",
CCCC[C@@H]1CNC(=S)N1CCC12CC3CC(CC(C3)C1)C2,"inconclusive [inhibitor, full curve, poor fit]",
CCOC(=O)c1sc(NC(=O)CCSC)nc1C,"inconclusive [inhibitor, single point]",
COCCCNCC(=O)Nc1ccc(OC(F)(F)F)cc1,,inactive: 4.26%
COc1ccc(-n2nc(C(=O)NCC(=O)N3CCC4(CC3)OCCO4)c3ccccc3c2=O)cc1Cl,,inactive: 46.5%
Cc1noc(C)c1S(=O)(=O)Nc1ccc(C(=O)N2CCc3ccccc3C2)cc1,,inactive: 10.5%
Cn1c(NCCCN2CCOCC2)nc2c1c(=O)n(Cc1ccc(Cl)cc1)c(=O)n2C,"inconclusive [inhibitor, partial curve]",
c1ccc2sc(Nc3nc4cc5c(cc4s3)OCO5)nc2c1,,inactive: 189%
CCN(CC)S(=O)(=O)c1cc(NC(=O)CSc2nnc(-c3cccs3)o2)ccc1C,,inactive: 3.07%
CC1=C(C(=O)OCCOC(C)C)C(c2cc3c(cc2Br)OCO3)CC(=O)N1 (stereo not given),"inconclusive [inhibitor, partial curve, poor fit]",
Cc1cc(O)ccc1Nc1nc2ccccc2nc1Nc1ccc(O)cc1C,"inconclusive [inhibitor, single point]",
Cc1ccc([N+](=O)[O-])cc1-c1ccc(/C=N/NC(=O)CN2CCOCC2)o1,"inconclusive [inhibitor, single point]",
O=C1CCCN1CCCNC(=S)Nc1ccccc1Cl,,inactive: 5.98%
O=S1(=O)CC(N2CCCCC2)C(N2CCCCC2)C1 (stereo not given),"inconclusive [inhibitor, full curve, poor fit]",
COc1cc(OC)cc(C(=O)N2CCCc3ccccc32)c1,,inactive: 0%
CCCOc1ccc(C2=CSC3=NCCN23)cc1,"inconclusive [inhibitor, partial curve, poor fit]",
Oc1ccc(/C=C\c2cc(O)cc(O)c2)cc1,"inconclusive [inhibitor, single point]",
O=C1NC(=O)C(CCc2ccccn2)(Cc2cccc(Cl)c2Cl)C(=O)N1c1ccc(Br)cc1 (stereo not given),"inconclusive [inhibitor, partial curve, poor fit]",
CCOC(=O)c1csc(NC(=O)CSc2nnnn2-c2ccc(OC)cc2)n1,"inconclusive [inhibitor, single point]",
CCCCCCCCCCCCn1ccc(=N)cc1,"inconclusive [inhibitor, full curve]",
O=C(CCCN1CCc2[nH]c3ccc(F)cc3c2C1)c1ccc(F)cc1,"inconclusive [inhibitor, single point]",
CCN(CC)S(=O)(=O)c1ccc(OC)c(NC(=O)CSc2ccccc2)c1,,inactive: -15.8%

Structure (SMILES),Potency,"activity change, negative = inhibition"
Cc1ccc(-c2ocnc2C(=O)Nc2ccccc2NC(=O)c2ccccn2)cc1,active: 2.08 µM,
O=C(NC1CCCCCC1)c1c(O)nc2sccn2c1=O,active: 6.57 µM,
Cc1ccc(F)cc1NC(=O)COC(=O)C1CCN(c2ccc(C(F)(F)F)cn2)CC1,,inactive: 38.1%
COc1ccc(CNC(=O)CN2C(=O)NC3(CCCc4sccc43)C2=O)cc1OC (stereo not given),"inconclusive [inhibitor, partial curve]",
CC(=O)CCc1ccc(OCCCOc2cccc3cccnc23)cc1,"inconclusive [inhibitor, single point]",
CCOc1ccc(OCCCCn2ccnc2)cc1,,inactive: -12.8%
CCOC(=O)C1(Cc2ccccc2)CCN(Cc2ccc(C3CCCCO3)s2)CC1 (stereo not given),"inconclusive [inhibitor, single point]",
CC(=O)c1ccc(NC(=O)Nc2sc(NS(=O)(=O)c3ccccc3)nc2C)cc1,"inconclusive [inhibitor, partial curve, poor fit]",
Cc1sc(N/N=C/c2ccco2)nc1-c1ccccc1,"inconclusive [inhibitor, single point]",
CC(=O)Nc1ccc(N2CCOCC2)c([N+](=O)[O-])c1,,inactive: 23.4%
O=C(CCCc1ccccc1)N1CCN(C2CCCCC2)CC1,,inactive: 115%
CC1CCN(CC(O)COc2ccc(C(=O)c3ccccc3)cc2)CC1 (stereo not given),"inconclusive [inhibitor, single point]",
C=C(C)COc1ccc(-c2ncncc2-c2ccc(Br)cc2)c(O)c1,active: 1.85 µM,
CCC(C)(C)NC(=O)C(c1ccc(OC)cc1)N(C(=O)CCC(=O)Nc1cc(C)on1)c1ccccc1OC (stereo not given),"inconclusive [inhibitor, partial curve, poor fit]",
COc1ccc(C(=O)N2CCCC(Nc3ccc(F)cc3)C2)cc1F (stereo not given),,inactive: 24.3%
CCOC(CCn1c(SCC(=O)NC2CCCC2)nc2ccccc2c1=O)OCC,,inactive: 13.8%
O=C(Nc1cccnc1)/C(N=Nc1cccnc1)=C(\O)c1ccccc1,"inconclusive [inhibitor, single point]",
COc1cc(NC(=O)c2cc(OC)c(OC)c(OC)c2)ccc1NC(=O)c1cccs1,,inactive: -18.8%
COc1cc(NC(=O)c2cc(OC)c(OC)c(OC)c2)cc(-n2cnnn2)c1,,inactive: 15.9%
Cn1nnnc1SCC(=O)Nc1ccccc1-c1ccccc1,,inactive: 33.6%
Cc1[nH]nc2c1C(c1ccc(F)cc1)C(C#N)=C(N)O2 (stereo not given),,inactive: 9.42%
Cn1c2ccccc2c(=O)c2c(=O)n(-c3ccccc3)c(-c3ccc(C(C)(C)C)cc3)nc21,active: 1.85 µM,
COc1ccc(-n2c(-c3ccc(Br)cc3)n[nH]c2=S)cc1,,inactive: -16.1%
CC(C)(C)C(=O)COC(=O)c1cc2ccccc2cc1O,,inactive: 50%
Oc1ccc2c3c1O[C@H]1c4oc5ccccc5c4C[C@@]4(O)[C@@H](C2)N(CC2CC2)CC[C@]314,"inconclusive [inhibitor, full curve, poor fit]",

Structure (SMILES),Potency,"activity change, negative = inhibition"
COc1cccc(CC(NC(C)=O)C(=O)NC2CCN(c3c(Cc4ccccc4)c(C)nc4ncnn34)CC2)c1OC (stereo not given),active: 5.86 µM,
Cc1cc(NC(=O)CSc2ncnc3sccc23)no1,"inconclusive [inhibitor, single point]",
OC1CCCN(c2c3c(nc4cc(-c5cccc(F)c5)nn24)CCCC3)C1 (stereo not given),"inconclusive [inhibitor, single point]",
Cc1sc2ncnc(Sc3nnnn3-c3ccc(Cl)cc3)c2c1C,active: 8.28 µM,
CCc1cc(S(=O)(=O)N2CCN(C(=O)c3ccco3)CC2)ccc1OC,,inactive: -22.3%
COc1ccc(N(CC(=O)NCc2ccc(C)cc2)S(=O)(=O)c2c(C)nn(C)c2C)cc1,,inactive: -6.63%
COc1cc(OC)c(C2C(C#N)=C(C)NC(C)=C2C#N)c(C(=O)O)c1,,inactive: 38%
COc1ccc(NC(=O)c2ccc(C)o2)c([N+](=O)[O-])c1,,inactive: 129%
CCOC(=O)C1CCN(c2ncnc3nc[nH]c23)CC1,"inconclusive [inhibitor, single point]",
CCCCn1c(N)c(N(CCOC)C(=O)c2ccc(N3C(=O)CCC3=O)cc2)c(=O)[nH]c1=O,,inactive: 1.59%
COc1ccc2ccccc2c1C(=O)/C=C\c1ccoc1,,inactive: -9.86%
COCCN(CCOC)S(=O)(=O)c1ccc(C(=O)Nc2nc(-c3ccncc3)cs2)cc1,"inconclusive [inhibitor, single point]",
CCCCc1cc(=O)oc2cc(OCC(=O)N3CCC(C(=O)O)(c4ccccc4)CC3)ccc12,"inconclusive [inhibitor, single point]",
Cc1c(Cl)cccc1NC(=S)NCCc1ccc(C(F)(F)F)cc1,active: 6.57 µM,
COc1ccc([C@H]2CC(=O)C=C(c3cccc(C(C)C)c3)C2)cc1,"inconclusive [inhibitor, single point]",
CCn1c(NCc2ccccn2)nc2ccccc21,"inconclusive [inhibitor, single point]",
CN1CCC(=C2c3ccccc3C=Cc3ccccc32)CC1,active: 11.7 µM,
CCOc1ccc(S(=O)(=O)N2CCC(C(=O)NCc3ccco3)CC2)cc1C,"inconclusive [inhibitor, partial curve]",
CCC(C)OC(=O)C[N+](C)(C)CCOC1CC2CCC1(C)C2(C)C (stereo not given),active: 0.928 µM,
CCc1ccc2c(CN3CCc4ccccc43)cc(=O)oc2c1,"inconclusive [inhibitor, single point]",
O=C(NCCCN1CCOCC1)c1cc(-c2ccc(Br)cc2)nc2ccccc12,"inconclusive [inhibitor, single point]",
Cc1onc(-c2c(Cl)cccc2Cl)c1C(=O)Nc1nc(C(C)(C)C)cs1,"inconclusive [inhibitor, full curve]",
O=C(NCCCN1CCCC1)c1ccc2c(c1)N(Cc1ccccc1)CCS2,"inconclusive [inhibitor, single point]",
Cc1nc2ccccc2n(CC(=O)Nc2cc(Cl)cc(Cl)c2)c1=O,"inconclusive [inhibitor, single point]",
COc1cc(/C=C2/C(=O)N(c3ccc(C(=O)O)cc3)N=C2C)cc(OC)c1O,,inactive: 34.7%
